Reference: PubChem BioAssay AID743279 (National Center for Advancing Translational Sciences (NCATS), 2014)
In all, about 360,000 compounds went through this assay and about 17,000 (4.7%) were called active. The inconclusive results got no clear call from the source; some entries with a clear call stand among them for comparison. Rule as the data show it: active = activity change below about -50%; inconclusive = mostly about -30% to -49%; inactive = weaker than that.

Experiment: qHTS for Inhibitors of Inflammasome Signaling: IL-1-beta AlphaLISA Primary Screen
Conditions: THP-1 LPS/ATP IL-1B secretion, 16 h; at 57.5 µM, active compounds read low
Procedure, shortened: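 THP-1 cells pretreated 1 hr with compounds (up to 57.5 uM final), then stimulated with LPS (250 ng/mL final) plus ATP (1.25 mM final); secreted IL-1B measured by AlphaLISA after 16 hr, decreased signal indicating inhibition.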
% is scaled to controls: 0 for no effect and ±100 for the full control effect.

Activity change, inactive:
COc1ccc(CN(CCCN2CCOCC2)C(=O)Nc2cccc(Cl)c2)cc1OC -13.6%
COC(=O)C1CC(Cl)CN1c1ncc(C(F)(F)F)cc1Cl (stereo unspecified) 51%
CCCCC1Cc2[nH][nH]c(=O)c2C(c2ccc(F)cc2)O1 (stereo unspecified) -1.89%
CCCN(CCC)c1nc(Cl)nc(NCCN2CCOCC2)n1 25.2%
COC(=O)c1ccc(NC(=S)NC2CCCCC2C)cc1 (stereo unspecified) -5.25%
COc1ccc(NC(=O)NNC(=O)c2cc3occc3n2C)c(OC)c1 -19.2%
CN(C)C(CNC(=O)c1cc(S(=O)(=O)N(C)Cc2ccccc2)ccc1Cl)c1ccco1 (stereo unspecified) -6.77%
C/C(=N\Nc1cc(-c2ccccc2)nc(-c2ccccc2)n1)c1ccc(O)c(C)c1 -27.1%
Cc1noc(C(=O)N2CCN(Cc3ccc4c(c3)OCO4)CC2)c1Cl -10.6%
O=c1c2ccccc2c(C=Nc2ccc(O)cc2)c(O)n1Cc1ccccc1 -12.5%
O=C(Nc1cc(S(=O)(=O)Nc2ccccc2Cl)ccc1O)c1ccc(F)cc1F 23.2%
CCCCCNC(=O)C1CC=CCC1C(=O)O (stereo unspecified) 28.2%
O=C(CCN1C(=O)C2C3C=CC(C4CC34)C2C1=O)Oc1ccc(Br)cc1 (stereo unspecified) 21%
c1ccc(-c2ccccc2-n2cnnn2)cc1 6.27%
COCCNCc1ccc(C(C)C)cc1 9.98%
Cc1ccc(-c2cc(C(=O)NCc3ccco3)c3ccccc3n2)o1 9.2%
N#Cc1c(-c2ccco2)c2c([nH]c1=S)CCCC2 0%
O=C(CNCc1ccc(Cl)cc1)N1CCc2ccccc2C1 -20.1%
O=[N+]([O-])c1cc(F)cc(F)c1Nc1ccc(F)cc1 -0.506%
CCOC(=O)/C(C#N)=C/c1cn(CCC(=O)O)nc1-c1ccc(Br)cc1 0%
COc1ccc(-c2cc(=O)c3ccccc3o2)cc1 15%
CCOC(=O)C1CCCN(C(=O)CCCn2nc(C)n3c(cc4sccc43)c2=O)C1 (stereo unspecified) 0.952%
Cc1oc(-c2ccccc2Cl)nc1CN1CCCCC1c1cccnc1 (stereo unspecified) 11.4%

Activity change, inconclusive:
CCN(CC)CCCNC(=O)c1cn(CC)c2ccc(S(=O)(=O)N(C)C3CCCCC3)cc2c1=O -41.5%
CC(=O)Nc1ccc(C(=O)OCC(=O)Nc2ccccc2F)cc1 -39.7%
COc1ccc(CCNC(=O)c2cc(-c3cc(C)ccc3O)n[nH]2)cc1OC -46%
COc1cc(C(F)(F)F)ccc1C(=O)NCCc1ccco1 -30.2%
COC(=O)[C@@]1(Cc2ccc(F)cc2)[C@H]2c3cc(C(=O)N4CCCC4)n(CCF)c3C[C@H]2CN1C(=O)c1ccccc1 -36.5%
Cc1ccc(Nc2nnc(SCC(=O)c3ccc(Br)s3)s2)c(C)c1 -49.5%
COc1ccc(CNCCCn2cnc3c(OCc4ccccc4)ncnc32)cc1 -37.8%
CCCSc1nnc(CSc2nc3ccccc3s2)n1-c1ccccc1 -33.3%
O=C(Nc1ccsn1)c1ccc(Cl)cc1Cl -35.9%
c1coc(-c2nc3ccccc3nc2-c2ccco2)c1 -34%
N/C(Cc1ccc([N+](=O)[O-])cc1)=N\OC(=O)c1ccc([N+](=O)[O-])cc1 -43.3%
COc1cc(CCCN2C(=O)C(=O)NC[C@H]2Cc2cccc3ccccc23)cc(OC)c1OC -44.8%
O=C1OCc2cc(-n3cccc3)ccc21 -32.9%
O=C(Cc1cccs1)N1CCN=C1SCc1ccc(F)cc1 -31.9%
Cc1nonc1C1CCCN1C(=O)c1cc(COc2cccc(C(F)(F)F)c2)on1 (stereo unspecified) -47.9%
CCNC(=O)N1CCCC(C(=O)c2ccc(-c3ccccc3)cc2)C1 (stereo unspecified) -47.8%
O=C(Nc1ccccc1)C1=C[C@@H](C2CCCCC2)C[C@@H](OCCCCO)O1 -32.6%
Nc1ccc(Oc2cc(N)cc(Oc3ccccc3)c2)cc1 -45.3%
CCc1ccccc1NC(=O)CN(C)C(=O)CSc1nn(-c2ccc(F)cc2)c(=S)s1 -36.7%
O=C(NC12CC3CC(CC(C3)C1)C2)c1ccc(N2CCNCC2)c([N+](=O)[O-])c1 -32.3%
N#C/C(=C\c1cn(CCOc2ccccc2)c2ccccc12)C(=O)NCC1CCCO1 (stereo unspecified) -42.3%
O=C(N/N=C/c1ccoc1)c1ccc(Br)cc1 -31.5%
CCOc1ccc(CCN2C(=S)N([C@@H](Cc3ccc(O)cc3)CN3CCC[C@@H]3CN3C(=S)NC[C@@H]3Cc3ccccc3)C[C@@H]2Cc2ccc(O)cc2)cc1 -42.4%
CCOC(=O)c1cc(-c2ccc(N)cc2)sc1N -35.7%
Cc1cc(C)c2cc(CN(Cc3cccs3)Cc3nnnn3CC3CCCO3)c(=O)[nH]c2c1 (stereo unspecified) -49.7%
CC(=NNC(=O)c1cccs1)c1ccc2c(c1)OCCO2 -34.2%
COc1cc(C(=O)Nc2cccc(NC(=O)c3ccccc3)c2)cc(OC)c1OC -42.8%
CN(C)C(CNC(=O)c1ccc2nc[nH]c2c1)c1ccccc1 (stereo unspecified) -41.7%
O=C(NCc1ccc2c(c1)OCO2)c1ccc(COc2cc(Cl)ccc2Cl)o1 -30.1%
CCCCCc1c(O)nc(SCCN(C)C)[nH]c1=O -41.3%
CC1(Cc2ccc3c(c2)OCO3)C(=O)Nc2ccc(-c3cccc(C(F)(F)F)c3)cc21 (stereo unspecified) -43.5%
C#CC(=O)CC1(CN(Cc2ccccc2)C(=O)OC(C)(C)C)CCCCC1 -31.5%
COc1cccc(N2CCN(CC(=O)Nc3ccccc3C(=O)NCCc3ccccc3)CC2)c1 -32.7%
Cc1cc2nc(-c3ccc(SCC(=O)N4CCN(C(=O)c5ccco5)CC4)nc3)[nH]c2cc1C -37.2%
Cc1c(Cl)cccc1NC(=S)Nc1ccc2[nH]c(=O)[nH]c2c1 -45%
CCN1CCN(c2ccc(S(=O)(=O)N3CCOCC3)cc2NC(=O)/C=C/c2cccc(OC)c2OC)CC1 -30.7%
CC(C)C(c1nnnn1Cc1ccc(F)cc1)N1CCN(Cc2ccc3c(c2)OCO3)CC1 (stereo unspecified) -47.2%
COc1ccc2c(c1)C(SCC(=O)NCc1ccccc1)CC(C)(C)O2 (stereo unspecified) -37.9%
CCc1noc(C)c1C(=O)Nc1nc2c(C)cc(C)cc2s1 -45.7%
CN1CCN(C(=O)c2ccccc2N(Cc2ccccc2)S(=O)(=O)c2ccccc2)CC1 -44%
COc1ccc(/C=C2/CCCC(C(=O)C(F)(F)F)=C2O)cc1OC -43%
CC1=C(C(=O)Nc2ccc(C(=O)NCCCN3CCCCC3C)cc2)SCCO1 (stereo unspecified) -43.3%
CCC(=O)Nc1ccc(NCc2ccc(-c3ccccc3)cc2)cc1 -38.9%
COC(=O)[C@]12CCCCC=C1N(Cc1cccc3ccccc13)C(=O)[C@H](CC(=O)NCc1ccc(OC)c(OC)c1)C2 -41.7%
CC(=O)N1CCCN(Cc2cn(-c3ccc(C)cc3)nc2-c2cccc(C)c2)CC1 -34.5%
CCN(CC)S(=O)(=O)c1ccc2c(c1)nc(SCC(=O)N1CCCCCC1)n2-c1ccc(OC)cc1 -47.8%
CC(C)N(C#N)c1nc(N2CCOCC2)nc(N2CCOCC2)n1 -43.4%
CCCCCn1c(CN2CCN(c3cc(Cl)ccc3C)CC2)nc2c1c(=O)[nH]c(=O)n2C -34.5%
Clc1ccc(OCCCNCc2ccccc2)c2ccccc12 -41.9%

Activity change, active:
CN(c1ccc(C(=O)N2CCN(Cc3ccc4c(c3)OCO4)CC2)cc1)S(=O)(=O)c1ccccc1 -56.1%
CCC[C@@H](CN1CCC[C@H]1CN1C(N)=NC[C@@H]1Cc1ccccc1)N1C[C@@H](Cc2ccccc2)N(CCc2ccc(Cl)c(Cl)c2)C1=N -53%
O=C(CC1(O)C(=O)Nc2cc(Cl)cc(Cl)c21)c1ccccc1O (stereo unspecified) -80.2%
CC1=C(C)CS(=O)N(c2ccc(S(N)(=O)=O)cc2)C1 (stereo unspecified) -92.9%
O=C(N/N=C/c1cccc2ccccc12)c1ccccc1Cl -51.4%
Cc1cc(NC(=O)CCC(=O)N(CCC(C)C)C(C(=O)NCC2CCCO2)c2ccccc2C)no1 (stereo unspecified) -57.5%
CN(C)c1ccc(-c2n(C)c3ccccc3[n+]2C)cc1 -80.4%
Cc1nnc(SCC(=O)c2cc(C)n(-c3ccc4c(c3)OCO4)c2C)s1 -77.3%
Cc1cc(C)c2nc(-c3cccc(Cl)c3)c(C)c(C(=O)N3CCOCC3)c2c1 -82.3%
NC1=C(Br)C(=O)c2ncccc2C1=O -97.6%
COc1ccc(NC(=O)/C(Cl)=C(/Cl)S(=O)(=O)Cc2ccccc2)cn1 -118%
N#CC1=C(N)C2=CCCC[C@H]2[C@H](c2cccc(F)c2)C1(C#N)C#N -94.4%
O=C(CCS(=O)(=O)c1ccc(Cl)cc1)Nc1nnc(-c2ccco2)o1 -81.4%
O=C(CSc1c2c(nc3ccc(Cl)cc13)CCCC2)N1CCN(C(=O)c2ccco2)CC1 -79%
